Laboratory results: PubChem BioAssay AID686978 (National Center for Advancing Translational Sciences (NCATS), 2013)
Out of some 420,000 compounds screened, about 64,000 (15%) were called active. Inconclusive results, whose numbers are uncertain, are shown with a selection of clear calls. The call rests on the fitted dose curve; in most records, active means well fitted inhibition curve with a large enough effect; inconclusive means small, poorly fitted or top-dose-only effect; inactive means flat fitted curve, though single readings scatter. No potency is given beside an inconclusive call; the fits are too rough.

assay: qHTS for Inhibitors of human tyrosyl-DNA phosphodiesterase 1 (TDP1): qHTS in cells in absence of CPT; conditions: DT40 Tdp1-/- hTDP1 cells, no CPT, ATP luminescence, 48 h; activity change, negative = growth inhibition: at 46.2 µM (top of the series) unless noted; further: nearly all actives have a fitted effect of over 55% in size
Summary of the method: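 Seeded 400 DT40-hTDP1 cells/well (vehicle DMSO, no 20 nM CPT); pinned compounds; ≥48 hr at 37 °C; CellTiter-Glo luminescence as viability measure.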
On the % scale 0 is the no-effect control and ±100 the full control effect; potency means the concentration at half of the fitted maximal effect; tags describe the fitted curve by direction and shape.

| Compound | Potency | activity change, negative = growth inhibition |
| --- | --- | --- |
| O=S(Cc1cc(Oc2ccccc2)nc(-c2ccccc2)n1)c1ccccc1 (stereo not given) | inconclusive [inhibitor, single point] | – |
| c1ccc(-c2cc3n(c2)CCc2ccccc2-3)cc1 | inconclusive [inhibitor, single point] | – |
| O/N=C/c1ccnc(SCc2ccccc2)n1 | inactive | – |
| Cn1ccnc1SCC(=O)c1ccc([N+](=O)[O-])cc1 | inconclusive [inhibitor, single point] | – |
| CCN(CC)CCn1c2ccccc2c2cnc(N)c(C#N)c21 | active: 20.6 µM | – |
| CC1(C(=O)Nc2ccc(Cl)cc2)Cc2c(-c3ccc4c(c3)OCO4)ccnc2O1 (stereo not given) | inconclusive [inhibitor, single point] | – |
| O=C(CC1C(=O)NCCN1C(=O)Nc1ccc(Cl)cc1)Nc1ccc(F)cc1 (stereo not given) | inactive | – |
| Cc1ccc(-c2nn(C)c(=O)c3ccccc23)cc1CNC(=O)CN1CCOCC1 | inconclusive [inhibitor, single point] | – |
| CCOc1ccc(-c2c(C)nn3c(C)c(C(=O)NCCc4ccc(C)cc4)cnc23)cc1OCC | inconclusive [inhibitor, full curve] | – |
| O=C1CCC[C@@H]2[C@@H](Cc3ccccc3)[C@H](N3CCN(c4ccccc4)CC3)C[C@@H]3CCN1[C@@H]32 | inconclusive [inhibitor, single point] | – |
| CC1(O)CC(c2ccc(Cl)cc2)=NN1C(=O)c1ccc([N+](=O)[O-])cc1 (stereo not given) | active: 18.4 µM | – |
| COC(=O)Cc1c(C)c2ccc3c(c2oc1=O)CN(Cc1ccccc1Cl)CO3 | inconclusive [inhibitor, single point] | – |
| NC1CONC1=O (stereo not given) | inconclusive [inhibitor, partial curve] | – |
| CCOc1ccccc1NC(=S)NC1CC2CCC1C2 (stereo not given) | active: 20.6 µM | – |
| O=[N+]([O-])c1ccc(O)c(/C=N/Nc2ccccc2Cl)c1 | inconclusive [inhibitor, single point] | – |
| O=C(Nc1cccc([N+](=O)[O-])c1)c1ccc(N2CCCC2=O)cc1 | inactive | – |
| O=C(Nc1ccc(F)cc1)/C(=C1/CCCCCN1)[N+](=O)[O-] | inactive | – |
| O=C1c2cccc3c([N+](=O)[O-])ccc(c23)C(=O)N1CCc1ccccn1 | active: 5.17 µM | – |
| Cc1c(CNC(=O)c2cnn3c2NC(c2ccc(Br)cc2)CC3C(F)(F)F)cnn1C (stereo not given) | inconclusive [inhibitor, single point] | – |
| CC(C)CNC(=O)NC(=O)COC(=O)Cn1cnc2ccccc2c1=O | inactive | – |
| O=C(Nc1cccc([N+](=O)[O-])c1)C1CC(=O)N(Cc2ccccc2)C1 (stereo not given) | inconclusive [inhibitor, single point] | – |
| COc1cccc(CN(C)CC(=O)Nc2ccccc2C(=O)Nc2ccccc2)c1 | inconclusive [inhibitor, single point] | – |
| CN1C(=O)C2(C(C#N)=C(N)N(c3cc(Cl)cc(Cl)c3)C3=C2C(=O)CC(C)(C)C3)c2ccccc21 (stereo not given) | inconclusive [inhibitor, single point] | – |
| Cc1nc2cccnc2n1C1CCN(C(=O)Nc2ccc(Cl)cc2)CC1 | inconclusive [inhibitor, single point] | – |

| Compound | Potency | activity change, negative = growth inhibition |
| --- | --- | --- |
| CCOc1ccc(C2=C/C(=C/c3cccnc3)C(=O)O2)cc1 | – | inconclusive: -32.1% [inhibitor] |
| COc1cc(/C=C(\C#N)C(=O)Nc2ccccc2C(=O)O)cc(Cl)c1OC | inconclusive [inhibitor, single point] | – |
| CCCOc1ccccc1-n1sc2c(c1=S)-c1cc(OC)cc3c1N(C(=O)C3=O)C2(C)C | active: 16.4 µM | – |
| Cc1cccc(OCCCC(=O)Nc2ccc(S(=O)(=O)N3CCCC3)cc2)c1 | active: 18.4 µM | – |
| COc1ccc(NC(=O)C2CCN(S(=O)(=O)c3c(C)noc3/C=C/c3cccs3)CC2)cc1Cl | inconclusive [inhibitor, single point] | – |
| O=C(NCCSc1c[nH]c2ccccc12)c1ccccc1Cl | inconclusive [inhibitor, single point] | – |
| COc1ccc(CN2C[C@H]3CON(C)[C@H]3C[C@H]2c2ccc(-c3cccc(F)c3)cc2)cc1 | active: 16.4 µM | – |
| CC(NCc1cc(Br)ccc1OCC(=O)NCc1ccccc1)c1ccccc1 (stereo not given) | inconclusive [inhibitor, partial curve, poor fit] | – |
| CCOc1ccc(S(=O)(=O)N2CCC(C(=O)N3CCOCC3)CC2)cc1Cl | – | inconclusive: -31.1% [inhibitor] |
| CCc1ccc(CN(C)CC(=O)Nc2ccc(S(=O)(=O)N3CCOCC3)cc2)cc1 | inconclusive [inhibitor, single point] | – |
| O=[N+]([O-])c1cc2ccccc2c(O)c1O | inconclusive [inhibitor, single point] | – |
| CC1(C(=O)NS(=O)(=O)c2ccc(Cl)s2)CCN1C(=O)c1ccccc1CCc1ccccc1 (stereo not given) | inconclusive [inhibitor, single point] | – |
| O=C(Nc1ccncc1)C1C(=O)c2ccccc2N(Cc2ccccc2)C1=O (stereo not given) | active: 0.708 µM | – |
| O=C(Nc1ccccc1)N1CC2(CCN(S(=O)(=O)c3ccccc3)CC2)C1 | inactive | – |
| COc1ccc(C(=O)N/N=C/c2ccccn2)cc1 | inconclusive [inhibitor, single point] | – |
| CS(=O)(=O)N1CCN(c2ccccc2NC(=O)c2cc(Br)ccc2Cl)CC1 | inconclusive [inhibitor, single point] | – |
| CN(/N=C/c1cc(Cl)ccc1O)C1=NS(=O)(=O)c2ccccc21 | active: 18.4 µM | – |
| COCCNC(=O)c1ccccc1NC(=O)c1nsc2ccccc12 | inconclusive [inhibitor, single point] | – |
| CN(C)CCCNC(=O)/C(=C/c1ccc(-c2ccc([N+](=O)[O-])cc2)o1)NC(=O)c1ccccc1 | inactive | – |
| O=C(CCSCc1ccc(Cl)cc1)NCc1cccs1 | inactive | – |
| Cn1c(SCC(=O)c2ccc3c(c2)Cc2ccccc2-3)nnc1-c1ccccc1 | active: 29.1 µM | – |
| O=C(Oc1cccc2c(=O)[nH]ccc12)c1ccccc1 | inconclusive [inhibitor, single point] | – |
| COC(=O)c1ccc(CSC(=N)N)o1 | inconclusive [inhibitor, single point] | – |
| C=CCn1cnc2c(nnn2-c2ccc(C)c(C)c2)c1=O | inactive | – |

| Compound | Potency | activity change, negative = growth inhibition |
| --- | --- | --- |
| C=CCn1c(COc2ccccc2)nnc1SCc1ccc(C#N)cc1 | inconclusive [inhibitor, partial curve, poor fit] | – |
| Cc1nnsc1-c1nc2ccccc2n1C(CCc1ccccc1)c1nc2ccccc2[nH]1 (stereo not given) | inconclusive [inhibitor, single point] | – |
| Cc1cccn2c(=O)c(/C=C(\C#N)C(=O)NCc3ccco3)c(N3CCOCC3)nc12 | inconclusive [inhibitor, single point] | – |
| COc1cc(C=NNc2ccccc2[N+](=O)[O-])cc(OC)c1OC | inconclusive [inhibitor, full curve] | – |
| C[C@H]1CN([C@@H](C)CO)C(=O)c2cc(-c3cccc(F)c3)cnc2O[C@@H]1CN(C)S(C)(=O)=O | inactive | – |
| COc1nc(-c2ccccc2)cc(-c2ccc(OC)c(OC)c2)n1 | active: 20.6 µM | – |
| CCCCN(CC)CCNC(=O)CCC(=O)Nc1ccc2nc(N3CCN(C)CC3)cc(C)c2c1 | inactive | – |
| Cc1ccc(-n2cnnn2)cc1S(N)(=O)=O | inactive | – |
| Cc1ccc(S(=O)(=O)Oc2ccc(C)cc2/C=N/N=C2\NC(=O)C(C)S2)cc1 (stereo not given) | inconclusive [inhibitor, single point] | – |
| O=C(O)/C=C/c1ccc(OCc2cccc(F)c2)cc1 | inconclusive [inhibitor, single point] | – |
| COc1ccc2c(=O)cc(CO)oc2c1 | inactive | – |
| COc1cccc(Cn2cc(C(=O)c3ccc(Cl)cc3)c(=O)c3ccccc32)c1 | inconclusive [inhibitor, single point] | – |
| Cc1ccc(-c2csc3ncnc(N4CCN(c5ccccc5O)CC4)c23)cc1 | active: 14.6 µM | – |
| O=C1N[C@@H](Cc2ccccc2)C(=O)N2[C@H]1C[C@]1(Br)c3ccccc3N(S(=O)(=O)c3ccccc3)[C@H]21 | inconclusive [inhibitor, single point] | – |
| Clc1ccc(OCc2nc(-c3ccncc3)no2)c(Br)c1 | – | inconclusive: -31% [inhibitor] |
| CNC(=S)NCc1ccc(OC)cc1 | inactive | – |
| Cc1ccc(NC(=O)c2ccc(NC(=O)CCS(=O)(=O)c3cccs3)cc2)cc1F | inconclusive [inhibitor, partial curve] | – |
| COc1ccc2c(c1)c1nc3ccccc3nc1n2Cc1ccc(OC(C)C)c(OC)c1 | inconclusive [inhibitor, single point] | – |
| Cc1ccc(S(=O)(=O)N(C)C)cc1NC(=O)CN1c2cccc3cccc(c23)S1(=O)=O | inconclusive [inhibitor, single point] | – |
| CCc1noc(C)c1C(=O)N1CCCSC1=Nc1ccccc1 | inactive | – |
| O=C(CCN1C(=O)COc2ccccc21)NCCCN1CCN(c2ccccc2F)CC1 | inconclusive [inhibitor, single point] | – |
| O=C(CCSc1nc(-c2ccco2)cc(C(F)(F)F)n1)NCc1cccs1 | inconclusive [inhibitor, single point] | – |
